Results from the RNAGym collection of RNA variant scans (doi:10.7554/elife.90254).
The source gives no read counts; variants with many changes may rest on few reads.

B1: LINE1-mini (parent)
chain: GGCAGAGCUCAACACAGCGUGGCAAAGUGGCUGUGGCUAGACUGCC

Variants of: B1
Assay: self-cleavage, relative activity (ratio to wild type); higher = more cleavage; in vitro, sequencing; the parent is a self-cleaving ribozyme

| Variant | self-cleavage |
| --- | --- |
| C10G U28C C37U | 0.01 |
| A16U U32G G44C | 0.09 |
| G1C G36U C45A | 0 |
| A12U G17A G19C G36U C37A | 0 |
| A4G C10A G17A C31G C37A | 0.01 |
| C10G A14U A41C | 0 |
| C15U A39U C42A | 0.02 |
| A25C G27U A39U | 0.27 |
| A4C A14C G40U | 0.08 |
| U20A U34G A41C | 0.02 |
| C8U U32A U34C G35C | 0.15 |
| A4C A12U C15A G22U G36U C42G | 0.1 |
| C10A G33A G35C | 0 |
| C23U A24G U28A | 1.14 |
| A12U G29C G30U C31G U38C | 0.01 |
| A6G G27U A39U U43C | 0.06 |
| A4G C13G A14C A26C U38G C46A | 0.04 |
| G5U A11U C18A A25U | 0.04 |
| G1A G35U C37G | 0.04 |
| A25G G27U C46A | 0.26 |
| U20G G30U A41U C42U | 0.11 |
| A4G G7U A26U G33U | 0.08 |
| C3U A4U G7C C10U A14U G22U U38C A39C | 0.11 |
| C3A A4U C8G U9C A12C C15G G35A G40C | 0 |

| Variant | self-cleavage |
| --- | --- |
| G5C A6G G29U | 0.12 |
| G36U C37A C46G | 0.58 |
| G1U G2A A6U | 0.44 |
| G1C U9C A11G | 0.02 |
| C13G G21U G29A G30U U34G | 0 |
| A4U C13A A16C G21U C23A | 0.08 |
| A6G G44A C46U | 0.12 |
| A4G A12C C13U G17U G22A | 0.02 |
| G5U C10U C45U | 0.12 |
| G1U A4G C13A G27U | 0.04 |
| C18A A24C G27U | 0 |
| A4G C8G C31U | 0.04 |
| C13A C18U A25C | 0.06 |
| U9G U28C G30C G36U | 0.04 |
| G7U G19A U34C | 0.03 |
| G2C C8U C23U G27C C46U | 0.68 |
| G5U A26C C31A G40C | 0.02 |
| G1U C15A A39G A41G C42A | 0.05 |
| C8U A14C G30C C37A C42U U43G | 0 |
| A6U C31G G33U U43A C45U | 0.12 |
| G7U A26C G44C | 0.03 |
| G7C C8U C10A C37G | 0.02 |
| C3G A14U C15A | 0.07 |
| C23A G40U C42U | 0.08 |

| Variant | self-cleavage |
| --- | --- |
| G2U C10A C18A G21U G35U | 0.02 |
| A6U A25U G33C U34C | 0.02 |
| C3U G21A G40U | 0.11 |
| G1U G17A G21C C45A | 0.05 |
| G7A G19A A25C G44U | 0.08 |
| G2U A14C A24G U32A U38C C46U | 0.01 |
| A6C U9A G17C C31A C37G G40A C46G | 0.02 |
| G2A A14C G30U | 0.17 |
| C3A G17A C23G | 0.29 |
| C8A C10U U28A C46A | 0.03 |
| G7C G30U U34C U38A A41G | 0.03 |
| G17A G21U U43A | 0.09 |
| G2C C13A A25G | 0.02 |
| G17A G19A G36A | 0.08 |
| G21A G40C G44C | 0.07 |
| C3U C10A G17A G19U | 0.03 |
| C8G G17C A24U | 0.02 |
| G1A G7A C15G G33C | 0.29 |
| U9C A14C G19C U20G U28G C31U | 0.01 |
| C3G A4U C18U G29A G40A A41G | 0.2 |
| A4G C37A G44A C45A | 0.06 |
| G17A C31A A41C | 0.02 |
| G17A C23U U28A U32A | 0.02 |
| G35C U38C A41G | 0.02 |

| Variant | self-cleavage |
| --- | --- |
| G29A U43A C45U | 0.04 |
| G2A C13U C18A U20C G30A | 0.07 |
| C8A C13A G29A | 0.15 |
| C3U C8A C10U U20A | 0.14 |
| U32A A41C C42U | 0.08 |
| G5A A6G G35U | 0.06 |
| C3G A6C A16U | 0.07 |
| C10A A12U A16C | 0 |
| G7U A11U G17C C18A U28G G29C | 0 |
| G7C C13U G22A | 0.18 |
| G17C U34G C42G | 0.01 |
| G5A A6C U9C C46A | 0.13 |
| C3U C10G C23A | 0.04 |
| G5C A24U U43C | 0 |
| G21A A24U U43A | 0.06 |
| G2A G19C C46A | 1.69 |
| C23U G27U U43C | 0.16 |
| G1U A6U C45G | 0.34 |
| A11U G21U A41G | 0.1 |
| G7U C10A U28C U32G U34C | 0.04 |
| G2U C3A G7U C10A G17U A25C | 0.05 |
| U20G C23U A25G G33C U34A | 0.03 |
| G1C A4U C8G G33U | 0.04 |
| G2C C15A G22C A25U G27U C45G | 0.09 |

| Variant | self-cleavage |
| --- | --- |
| C13G A14U G22C | 0.06 |
| G29U G40C C46A | 0.66 |
| A11G G17A C31U G35U | 0.07 |
| A6C A12G A39C A41G | 0.16 |
| A6G G19U U43C | 0.04 |
| C15U G17C U28G | 0.03 |
| C15A A24C C45U | 0.1 |
| G1C G7U A26U U34C C46G | 0.01 |
| G27U U34G C46A | 0.11 |
| A16U G21U G44A | 0.01 |
| A6U A12U G27C U28A | 0.03 |
| G30U A41C C46G | 0.01 |
| G27U C37U A39U A41G | 0.01 |
| A4G G22C G36C | 0.16 |
| G1A C15A U28G C37U | 0.09 |
| A26G U32A U38G | 0.01 |
| G17A C18A C31A | 0.06 |
| A16U A26U U34C | 0.17 |
| C10A G22C C23A G36U | 0.02 |
| A6G A14U G21U | 0.16 |
| C3U C15U C18U A25G C37A | 0.14 |
| C8G C23G G29A G44C | 0.06 |
| C8A A25U A41G | 0.15 |
| A6G C18U G35C G40A | 0 |

| Variant | self-cleavage |
| --- | --- |
| A16U G17C G29U | 0.42 |
| U9A C15G A16C G21A A25U | 0.04 |
| G1A C8A G17A G19C A26G | 0.31 |
| G2C G17U G19A U32G | 0.09 |
| C10A G19A G21A C23U U32A A41C | 0 |
| G5U U9A G19A U20G G35C | 0.08 |
| A6U A12U G30A G40U | 0.27 |
| C10U A14U G27C C31A | 0.03 |
| A25C G35C C42U | 0 |
| A4C G30A U32C G44A | 0.07 |
| A16U U20A G35A | 0.03 |
| A6G G22A U32G U38A | 0 |
| C15A G17A A39C | 0.02 |
| U34G A41C C45G | 0.08 |
| A6G C10A G36A G44A | 0.07 |
| C8A G30U U32C G36C A39C | 0.07 |
| C13U G19C C23G G40A | 0.03 |
| A12U C15U G30U C37G A41C | 0.01 |
| C8A U32A U34G | 0.14 |
| C15G A41U C42A | 0.02 |
| C8G A12C G21A U34G | 0.03 |
| G5A A12G C13A C18U G30A G35A | 0.14 |
| G5A A24U G44A | 0.06 |
| G5C G35C G44A | 0.02 |

| Variant | self-cleavage |
| --- | --- |
| C3G A12U G19U G27U | 0.02 |
| G7U C15A U20A C46G | 0.1 |
| G19U A25U G30A | 1.02 |
| A4U C10A A14C | 0.01 |
| C3U G7C G17C A25G U34A | 0.02 |
| C13U G17U U20C U32C | 0.02 |
| U20A A26U C31G C46U | 0.02 |
| A4C G7A C8G G27U | 0.09 |
| U9C A11U G30U | 0.03 |
| A4C G7C U9A C18U U28C | 0.04 |
| C10G C18U C37A C46U | 0 |
| A6C C10G G21A | 0.05 |
| G5U C8A G22C | 0.09 |
| G2C C10A U32G | 0.01 |
| C3U C23U G27A C31A | 0.1 |
| A4C U9A A14G C37A G44U C45A | 0.02 |
| A12G G22A G29A G40U | 0.02 |
| G1U A4C G5C G19A A41C | 0.04 |
| C13A G30C C45A | 0.07 |
| G30U U32G G35A | 0.03 |
| C3A G17U C18G | 0.19 |
| G5U C15A G19U U32A | 0.05 |
| G1U C13A A26C | 0.28 |
